According to PubChem BioAssay AID624296 (National Center for Advancing Translational Sciences (NCATS), 2012):
About 9,900 (2.8%) of roughly 350,000 compounds were called active. Inconclusive means that the source gave no clear call. Such entries were picked first, then a sample of the others. The call rests on the fitted dose curve; in most records, active means well fitted activation curve with a large enough effect; inconclusive means small, poorly fitted or top-dose-only effect; inactive means no such curve, though single readings can be large or run the other way. Potencies of inconclusive entries are left out as doubtful fits.

assay: A quantitative high throughput screen for small molecules that induce DNA re-replication in MCF 10a normal breast cells.; further: nearly all actives have a fitted effect of over 50% in size; details: MCF 10A DNA re-replication, Hoechst nuclear intensity, 48 h; series mostly up to 46.1 µM
Potency means the concentration at half of the fitted maximal effect; tags describe the fitted curve by direction and shape.

Q: With `C=CCN1C(=NC(=O)COc2ccc(Cl)cc2)SC2CS(=O)(=O)CC21` (centres undefined) as the compound, how does the Potency read?
A: inactive

Q: Which Potency does the source give for `OC(CN1CCN(c2ccccn2)CC1)Cn1c2ccccc2c2ccccc21` (centres undefined) here?
A: inconclusive [activator, single point]

Q: With `Cc1c(-c2ccccc2)n[nH]c1C(=O)NN` as the compound, how does the Potency read?
A: inactive

Q: Which Potency does the source give for `COc1ccc(CC(=O)Nc2ccc(S(=O)(=O)Nc3nccc(C)n3)cc2)cc1` here?
A: inconclusive [activator, single point]

Q: For `CCc1ccc(OCC(=O)O/N=C(\N)Cc2ccc([N+](=O)[O-])cc2)cc1`, which Potency is on record?
A: inconclusive [activator, single point]

Q: With `CCCCc1cc(=O)oc2cc(OCC(=O)NCC3CCC(C(=O)O)CC3)ccc12` (centres undefined) as the compound, how does the Potency read?
A: inactive

Q: With `Clc1nc(-c2cccnc2)nc2scc(-c3ccccc3)c12` as the compound, how does the Potency read?
A: active: 16.4 µM

Q: For `COC(=O)c1c(-c2cccnc2)csc1NC(=O)c1ccc2c(c1)OCO2`, which Potency is on record?
A: inactive

Q: Which Potency does the source give for `FC(F)(F)c1cccc(N2CCN(C3CC4CCC3C4)CC2)c1` (centres undefined) here?
A: inconclusive [activator, single point]

Q: For `Cc1ccc(S(=O)(=O)N2CCCN(C(=O)c3cc4ccccc4[nH]3)CC2)cc1`, which Potency is on record?
A: inconclusive [activator, partial curve, poor fit]

Q: For `CCOc1ccc(/C=N/NC(=O)c2cc3c(OC)cc(OC)cc3[nH]2)cc1OC`, which Potency is on record?
A: inconclusive [activator, single point]

Q: For `CCOC(=O)C1(CC2CCCCO2)CCN(S(=O)(=O)c2ccsc2)CC1` (centres undefined), which Potency is on record?
A: inconclusive [activator, full curve, poor fit]

Q: For `Cc1ccc(C(=O)c2sc3c(c2N)c(=O)[nH]c(=O)n3CCc2ccccc2)cc1`, which Potency is on record?
A: active: 9.2 µM

Q: Which Potency does the source give for `CCCn1c2ccccc2c2nc3ccccc3nc21` here?
A: active: 22.4 µM

Q: For `COc1ccc(C2=NN(C(=O)c3ccccc3)C(c3ccc(OC)c(OC)c3)C2)cc1OC` (centres undefined), which Potency is on record?
A: inactive

Q: For `CCCCN(C(=O)c1cnc(C)cn1)c1c(N)n(CCC)c(=O)[nH]c1=O`, which Potency is on record?
A: inactive

Q: Which Potency does the source give for `COc1ccc(/C=C/C(=O)c2ccc(C(=O)/C=C/c3ccc(OC)c(OC)c3)cc2)cc1OC` here?
A: active: 6.51 µM

Q: Which Potency does the source give for `COc1c(C)cccc1C(=O)NCc1ccc2c(c1)OCO2` here?
A: inactive

Q: For `CCN(CC)c1ccc(C(=O)N/N=C(\C)c2cccnc2)cc1`, which Potency is on record?
A: inactive

Q: Which Potency does the source give for `O=C(c1ccc([N+](=O)[O-])cc1)N1CCC(Cc2ccccc2)CC1` here?
A: inconclusive [activator, partial curve, poor fit]

Q: Which Potency does the source give for `N#C/C(=C\C=C\c1ccccc1)C(=O)NCc1ccco1` here?
A: inconclusive [activator, single point]

Q: For `C=CCN1C(=O)/C(=C/c2ccc(O)cc2)S/C1=N/c1nccs1`, which Potency is on record?
A: active: 23.1 µM

Q: With `CCOC(=O)[C@@H]1[C@H]2COc3cc(OC)ccc3[C@@H]2N2C(=O)N(c3cccc(Cl)c3)C(=O)[C@@]12C` as the compound, how does the Potency read?
A: inactive

Q: With `O=C(NNC(=O)c1cc(-c2ccccc2)nc2ccccc12)Nc1cccc(Cl)c1` as the compound, how does the Potency read?
A: active: 11.6 µM

Q: Which Potency does the source give for `CC(C)(C)C1CCC(OC(=O)C[N+]2(C)CCCC2)CC1` (centres undefined) here?
A: inconclusive [activator, partial curve, poor fit]

Q: For `CCCn1c(=O)[nH]c(=O)c2c1nc(-c1ccc3c(c1)OCCO3)n2CCN1CCOCC1`, which Potency is on record?
A: inconclusive [activator, single point]

Q: With `COc1ccc(NC(=O)c2oc3ccc(S(=O)(=O)N4CCC5(CC4)OCCO5)cc3c2C)cc1` as the compound, how does the Potency read?
A: inconclusive [activator, partial curve, poor fit]

Q: For `Cc1ccc(-n2cnc(N)c2C(=O)c2cccc([N+](=O)[O-])c2)cc1`, which Potency is on record?
A: active: 14.6 µM

Q: For `CCN(CC)S(=O)(=O)c1ccc(Cl)c(C(=O)NNC(=O)c2csc(N3CCOCC3)n2)c1`, which Potency is on record?
A: inactive

Q: With `Cc1ccc(S(=O)(=O)NCCC(=O)Nc2nnc(C)s2)cc1` as the compound, how does the Potency read?
A: inactive

Q: For `Cc1ccc(Cn2cccc(NC(=O)NCc3ccccc3)c2=O)cc1`, which Potency is on record?
A: inconclusive [activator, full curve, poor fit]

Q: For `COc1ccc(CN2CCCC(CO)(Cc3ccc(F)cc3)C2)cc1C` (centres undefined), which Potency is on record?
A: inconclusive [activator, single point]

Q: Which Potency does the source give for `O=C(Nc1cc(Cl)ccc1Oc1ccccc1)C1=COCCO1` here?
A: inconclusive [activator, partial curve, poor fit]

Q: With `O=S(=O)(NCc1ccccc1Cl)c1ccc(-n2cccn2)cc1` as the compound, how does the Potency read?
A: inactive

Q: With `N#Cc1c(-c2ccc(F)cc2)cc(C2CC2)nc1SCC(=O)c1cccs1` as the compound, how does the Potency read?
A: inconclusive [activator, partial curve, poor fit]

Q: With `O=C(N/N=C/c1ccc(Cl)cc1)c1cc2c(s1)-c1ccccc1CC2` as the compound, how does the Potency read?
A: inconclusive [activator, full curve, poor fit]

Q: For `COC(=O)c1cc(Cl)c(NC(=O)/C=C/c2ccc(OC)cc2)cc1OC`, which Potency is on record?
A: inconclusive [activator, single point]

Q: For `CCCCCCCCC(=O)Nc1cc(C)ccc1OC`, which Potency is on record?
A: inconclusive [activator, partial curve, poor fit]

Q: With `O=C(Nc1cccc(/C=C/c2ccccn2)c1)c1ccc(-n2cncn2)c([N+](=O)[O-])c1` as the compound, how does the Potency read?
A: inconclusive [activator, single point]

Q: For `COc1ccc(S(=O)(=O)N2CCN(C(=O)c3c(C)nn(-c4ccccc4)c3Cl)CC2)cc1`, which Potency is on record?
A: inconclusive [activator, single point]

Q: For `O=C(c1cc(-c2ccco2)nn1-c1cccc(Cl)c1)N1CCCCC1`, which Potency is on record?
A: inconclusive [activator, single point]

Q: For `Cc1ccccc1OCC(=O)OCC(=O)NC1CCCCCC1`, which Potency is on record?
A: inactive

Q: Which Potency does the source give for `Cc1ccc(S(=O)(=O)Nc2ccc3oc(=O)sc3c2)c(C)c1` here?
A: inconclusive [activator, single point]

Q: With `Cc1nc(N2N=C(c3ccc(Cl)cc3)CC2c2ccco2)sc1C(=O)N(C)C` (centres undefined) as the compound, how does the Potency read?
A: active: 23.1 µM

Q: Which Potency does the source give for `CCc1ccc(C2(O)CC(C(F)(F)F)=NN2C(=O)Cc2ccc([N+](=O)[O-])cc2)cc1` (centres undefined) here?
A: inconclusive [activator, partial curve, poor fit]

Q: For `COc1ccccc1NNC(=O)C(O)(c1ccccc1)c1ccccc1`, which Potency is on record?
A: inconclusive [activator, full curve, poor fit]

Q: With `CCCNC(=O)C1(CC2CC(c3ccccc3)=NO2)CCN(C(=O)CCCCCBr)CC1` (centres undefined) as the compound, how does the Potency read?
A: inactive

Q: Which Potency does the source give for `Cc1ccccc1CSc1nnc(-c2cccs2)n1Cc1ccco1` here?
A: inconclusive [activator, single point]

Q: For `CCOc1ccc(C(=O)Nc2ccc(CN3CCOCC3)cc2)cc1Cl`, which Potency is on record?
A: inconclusive [activator, single point]

Q: Which Potency does the source give for `Cc1ccc(C)n1-n1cnc2sc3c(c2c1=O)CCCCC3` here?
A: inconclusive [activator, single point]

Q: For `COCCCNC(=O)CCCOc1ccccc1`, which Potency is on record?
A: inconclusive [activator, single point]

Q: For `CCOC(=O)C1=C(c2ccc(O)cc2)NC(=O)NC1C` (centres undefined), which Potency is on record?
A: inconclusive [activator, full curve, poor fit]

Q: For `O=C(O)CC/C(=N\NC(=O)CNC(=O)c1ccc(F)cc1)c1ccccc1`, which Potency is on record?
A: inactive

Q: For `CCCc1cc(=O)oc2c(CN3CCCC3)c(O)c(Cl)cc12`, which Potency is on record?
A: inconclusive [activator, single point]

Q: For `COCCN=C1Sc2nc3cc(C)c(C)cc3cc2CN1Cc1cccs1`, which Potency is on record?
A: inactive

Q: Which Potency does the source give for `c1ccc(C2[C@H]3CN(Cc4cccnc4)[C@H](c4ccccc4)C34CC2(c2cccnc2)C4)cc1` (some centres undefined) here?
A: inconclusive [activator, single point]

Q: For `CCS(=O)(=O)Nc1ccc(C2=NN(C(=O)c3ccco3)C(c3ccco3)C2)cc1` (centres undefined), which Potency is on record?
A: active: 9.2 µM

Q: Which Potency does the source give for `CC(=O)N1c2ccc(S(=O)(=O)NCCC(=O)N3CCCC(C)C3)cc2CC1C` (centres undefined) here?
A: inactive

Q: Which Potency does the source give for `NNc1nc2c(Cl)c(Cl)ccc2s1` here?
A: inconclusive [activator, single point]

Q: With `COc1ccccc1NC(=O)N1CCCC1C(=O)NCc1ccccc1Cl` (centres undefined) as the compound, how does the Potency read?
A: inactive

Q: For `O=C(NCc1cc(Br)cc(Br)c1OC(=O)c1ccccc1[N+](=O)[O-])c1ccccc1`, which Potency is on record?
A: inconclusive [activator, single point]

Q: For `COC(=O)Cc1ccc(NC(=S)N2CCN(c3cccc(O)c3)CC2)cc1`, which Potency is on record?
A: inconclusive [activator, partial curve]

Q: With `Cn1c(=O)n(C)c2cc(S(=O)(=O)Nc3cc(Cl)ccc3O)ccc21` as the compound, how does the Potency read?
A: inconclusive [activator, single point]

Q: With `CN1CCN(c2nc(C#N)cc(-c3ccccc3)n2)CC1` as the compound, how does the Potency read?
A: inconclusive [activator, partial curve, poor fit]

Q: With `Fc1ccc(Cn2nnc(-c3ccc(CN4CCOCC4)cc3)n2)cc1` as the compound, how does the Potency read?
A: inconclusive [activator, partial curve, poor fit]

Q: With `CC(C)N(C(=O)[C@H]1C[C@H](CC(=O)NCCCn2ccnc2)C(=O)N2CCc3c([nH]c4cc(CCC(=O)N(C)C)ccc34)[C@]12C)C(C)C` as the compound, how does the Potency read?
A: inactive

Q: Which Potency does the source give for `c1coc(-c2nc(-c3ccco3)c(-c3ccco3)nc2-c2ccco2)c1` here?
A: inconclusive [activator, full curve, poor fit]

Q: Which Potency does the source give for `N=c1c(C(=O)NC2CCCCC2)cc2c(=O)n3ccccc3nc2n1Cc1ccco1` here?
A: inconclusive [activator, partial curve, poor fit]

Q: Which Potency does the source give for `CC(=O)c1cccc(NC(=S)NCCCCc2ccccc2)c1` here?
A: inconclusive [activator, partial curve, poor fit]
